{
  "source": "the supplement of paper PMC8728848",
  "binders": {"B1": {"name": "Gal 3 (Canis lupus) (protein)", "chain": "MADSFSLNDALSGSGNPNPQGWPGPWGNQPAGAGGYPGASYPGAYPGQAPPGGYPGQAPPGGYPGQAPPGGYPGQAPPGGYPGQAPPGGYPGQAPPGTYPGPTAPAYPGPTAPGTQPGQPSGPGAYPPPGQPSAPGAYPAAGPFGIPAGPLTVPYDLPLPGGVKPRMLITILGTVRPSANRLALDFKRGNDVAFHFNPRFNEDNKRVIVCNTKLDNIWGKEERQAAFPFESGKPFKIQVLVESDHFKVAVNDAHLLQYNHRMKNLPEISKLGISGDIDLTSASYAMI"}},
  "assay_in_all_cases": "glycan array binding signal (z-score within array); higher = stronger binding",
  "conditions_in_all_cases": "glycan notation: IUPAC condensed, linker removed",
  "key": {"[1]": {"target": "Neu5Ac(a2-6)Gal(b1-3)GlcNAc(b1-3)[Gal(b1-4)GlcNAc(b1-6)]Gal(b1-4)Glc", "procedure,_shortened": "(§1)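 The binding signal is a Z-score computed within each array. Data were drawn from 3228 arrays in the Consortium for Functional Glycomics database, restricted to those with a known protein sequence. Scores were averaged over arrays of the same protein sequence at different concentrations or buffers, and over linkers, and negative values can be taken as non-binding.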"}, "Neu5Ac(a2-6)Gal(b1-4)Glc": {"target": "Neu5Ac(a2-6)Gal(b1-4)Glc", "procedure,_shortened": "as §1"}, "[2]": {"target": "Neu5Ac(a2-6)Gal(b1-4)GlcNAc", "procedure,_shortened": "as §1"}, "[3]": {"target": "Neu5Ac(a2-6)Gal(b1-4)GlcNAc(b1-2)Man(a1-3)Man(b1-4)GlcNAc(b1-4)GlcNAc", "procedure,_shortened": "as §1"}, "[4]": {"target": "Neu5Ac(a2-6)Gal(b1-4)GlcNAc(b1-2)Man(a1-3)[Gal(b1-4)GlcNAc(b1-2)Man(a1-6)]Man(b1-4)GlcNAc(b1-4)GlcNAc", "procedure,_shortened": "as §1"}, "[5]": {"target": "Neu5Ac(a2-6)Gal(b1-4)GlcNAc(b1-2)Man(a1-3)[GlcNAc(b1-2)Man(a1-6)]Man(b1-4)GlcNAc(b1-4)GlcNAc", "procedure,_shortened": "as §1"}, "[6]": {"target": "Neu5Ac(a2-6)Gal(b1-4)GlcNAc(b1-2)Man(a1-3)[GlcNAc(b1-2)Man(b1-4)GlcNAc(b1-2)Man(a1-6)]Man(b1-4)GlcNAc(b1-4)GlcNAc", "procedure,_shortened": "as §1"}, "[7]": {"target": "Neu5Ac(a2-6)Gal(b1-4)GlcNAc(b1-2)Man(a1-3)[Man(a1-6)]Man(b1-4)GlcNAc(b1-4)GlcNAc", "procedure,_shortened": "as §1"}, "[8]": {"target": "Neu5Ac(a2-6)Gal(b1-4)GlcNAc(b1-2)Man(a1-3)[Neu5Ac(a2-6)Gal(b1-4)GlcNAc(b1-2)Man(a1-6)]Man(b1-4)GlcNAc(b1-4)GlcNAc", "procedure,_shortened": "as §1"}, "[9]": {"target": "Neu5Ac(a2-6)Gal(b1-4)GlcNAc(b1-2)Man(a1-6)Man(b1-4)GlcNAc(b1-4)GlcNAc", "procedure,_shortened": "as §1"}, "[10]": {"target": "Neu5Ac(a2-6)Gal(b1-4)GlcNAc(b1-2)Man(a1-6)[Gal(b1-4)GlcNAc(b1-2)Man(a1-3)]Man(b1-4)GlcNAc(b1-4)GlcNAc", "procedure,_shortened": "as §1"}, "[11]": {"target": "Neu5Ac(a2-6)Gal(b1-4)GlcNAc(b1-2)Man(a1-6)[GlcNAc(b1-2)Man(a1-3)]Man(b1-4)GlcNAc(b1-4)GlcNAc", "procedure,_shortened": "as §1"}, "[12]": {"target": "Neu5Ac(a2-6)Gal(b1-4)GlcNAc(b1-2)Man(a1-6)[Man(a1-3)]Man(b1-4)GlcNAc(b1-4)GlcNAc", "procedure,_shortened": "as §1"}, "[13]": {"target": "Neu5Ac(a2-6)Gal(b1-4)GlcNAc(b1-3)Gal(b1-3)GlcNAc", "procedure,_shortened": "as §1"}, "[14]": {"target": "Neu5Ac(a2-6)Gal(b1-4)GlcNAc(b1-3)Gal(b1-4)GlcNAc", "procedure,_shortened": "as §1"}, "[15]": {"target": "Neu5Ac(a2-6)Gal(b1-4)GlcNAc(b1-3)Gal(b1-4)GlcNAc(b1-3)Gal(b1-4)GlcNAc", "procedure,_shortened": "as §1"}, "[16]": {"target": "Neu5Ac(a2-6)Gal(b1-4)GlcNAc(b1-3)Gal(b1-4)[Fuc(a1-3)]GlcNAc(b1-3)Gal(b1-4)[Fuc(a1-3)]GlcNAc", "procedure,_shortened": "as §1"}, "[17]": {"target": "Neu5Ac(a2-6)Gal(b1-4)GlcNAc(b1-3)GalNAc", "procedure,_shortened": "as §1"}, "[18]": {"target": "Neu5Ac(a2-6)Gal(b1-4)GlcNAc6S", "procedure,_shortened": "as §1"}, "Neu5Ac(a2-6)GalNAc": {"target": "Neu5Ac(a2-6)GalNAc", "procedure,_shortened": "as §1"}, "[19]": {"target": "Neu5Ac(a2-6)GalNAc(b1-4)GlcNAc", "procedure,_shortened": "as §1"}, "[20]": {"target": "Neu5Ac(a2-6)GlcNAc(b1-4)GlcNAc", "procedure,_shortened": "as §1"}, "[21]": {"target": "Neu5Ac(a2-6)GlcNAc(b1-4)GlcNAc(b1-4)GlcNAc", "procedure,_shortened": "as §1"}, "Neu5Ac(a2-8)Neu5Ac": {"target": "Neu5Ac(a2-8)Neu5Ac", "procedure,_shortened": "as §1"}, "[22]": {"target": "Neu5Ac(a2-8)Neu5Ac(a2-3)Gal(b1-4)Glc", "procedure,_shortened": "as §1"}, "[23]": {"target": "Neu5Ac(a2-8)Neu5Ac(a2-3)[Gal(b1-3)GalNAc(b1-4)]Gal(b1-4)Glc", "procedure,_shortened": "as §1"}, "[24]": {"target": "Neu5Ac(a2-8)Neu5Ac(a2-3)[GalNAc(b1-4)]Gal(b1-4)Glc", "procedure,_shortened": "as §1"}, "[25]": {"target": "Neu5Ac(a2-8)Neu5Ac(a2-8)Neu5Ac", "procedure,_shortened": "as §1"}, "[26]": {"target": "Neu5Ac(a2-8)Neu5Ac(a2-8)Neu5Ac(a2-3)Gal(b1-4)Glc", "procedure,_shortened": "as §1"}, "[27]": {"target": "Neu5Ac(a2-8)Neu5Ac(a2-8)Neu5Ac(a2-3)[GalNAc(b1-4)]Gal(b1-4)Glc", "procedure,_shortened": "as §1"}, "[28]": {"target": "Neu5Ac(a2-8)Neu5Ac(a2-8)Neu5Ac(a2-8)Neu5Ac(a2-3)[GalNAc(b1-4)]Gal(b1-4)Glc", "procedure,_shortened": "as §1"}, "[29]": {"target": "Neu5Ac(b2-6)Gal(b1-4)GlcNAc", "procedure,_shortened": "as §1"}, "Neu5Ac(b2-6)GalNAc": {"target": "Neu5Ac(b2-6)GalNAc", "procedure,_shortened": "as §1"}, "[30]": {"target": "Neu5Ac9Ac(a2-3)Gal(b1-3)GlcNAc", "procedure,_shortened": "as §1"}, "[31]": {"target": "Neu5Ac9Ac(a2-3)Gal(b1-4)GlcNAc", "procedure,_shortened": "as §1"}, "[32]": {"target": "Neu5Ac9Ac(a2-6)Gal(b1-4)GlcNAc", "procedure,_shortened": "as §1"}, "[33]": {"target": "Neu5Gc(a2-3)Gal(b1-3)GlcNAc", "procedure,_shortened": "as §1"}, "[34]": {"target": "Neu5Gc(a2-3)Gal(b1-3)[Fuc(a1-4)]GlcNAc", "procedure,_shortened": "as §1"}, "Neu5Gc(a2-3)Gal(b1-4)Glc": {"target": "Neu5Gc(a2-3)Gal(b1-4)Glc", "procedure,_shortened": "as §1"}, "[35]": {"target": "Neu5Gc(a2-3)Gal(b1-4)GlcNAc", "procedure,_shortened": "as §1"}, "[36]": {"target": "Neu5Gc(a2-3)Gal(b1-4)[Fuc(a1-3)]GlcNAc", "procedure,_shortened": "as §1"}, "[37]": {"target": "Neu5Gc(a2-6)Gal(b1-4)GlcNAc", "procedure,_shortened": "as §1"}, "Neu5Gc(a2-6)GalNAc": {"target": "Neu5Gc(a2-6)GalNAc", "procedure,_shortened": "as §1"}, "[38]": {"target": "Neu5Gc(b2-6)Gal(b1-4)GlcNAc", "procedure,_shortened": "as §1"}},
  "note": "The list shows a part of the results.",
  "data": [
    {"binder": "B1", "values": [
      {"measurement": "glycan array binding signal (z-score)", "setting": "[1]", "value": -0.158},
      {"measurement": "glycan array binding signal (z-score)", "setting": "Neu5Ac(a2-6)Gal(b1-4)Glc", "value": -0.246},
      {"measurement": "glycan array binding signal (z-score)", "setting": "[2]", "value": -0.268},
      {"measurement": "glycan array binding signal (z-score)", "setting": "[3]", "value": -0.258},
      {"measurement": "glycan array binding signal (z-score)", "setting": "[4]", "value": -0.259},
      {"measurement": "glycan array binding signal (z-score)", "setting": "[5]", "value": -0.235},
      {"measurement": "glycan array binding signal (z-score)", "setting": "[6]", "value": 0.061},
      {"measurement": "glycan array binding signal (z-score)", "setting": "[7]", "value": -0.251},
      {"measurement": "glycan array binding signal (z-score)", "setting": "[8]", "value": -0.244},
      {"measurement": "glycan array binding signal (z-score)", "setting": "[9]", "value": -0.258},
      {"measurement": "glycan array binding signal (z-score)", "setting": "[10]", "value": -0.181},
      {"measurement": "glycan array binding signal (z-score)", "setting": "[11]", "value": -0.265},
      {"measurement": "glycan array binding signal (z-score)", "setting": "[12]", "value": -0.263},
      {"measurement": "glycan array binding signal (z-score)", "setting": "[13]", "value": 2.17},
      {"measurement": "glycan array binding signal (z-score)", "setting": "[14]", "value": 1.94},
      {"measurement": "glycan array binding signal (z-score)", "setting": "[15]", "value": 5.91},
      {"measurement": "glycan array binding signal (z-score)", "setting": "[16]", "value": -0.23},
      {"measurement": "glycan array binding signal (z-score)", "setting": "[17]", "value": -0.241},
      {"measurement": "glycan array binding signal (z-score)", "setting": "[18]", "value": -0.26},
      {"measurement": "glycan array binding signal (z-score)", "setting": "Neu5Ac(a2-6)GalNAc", "value": -0.257},
      {"measurement": "glycan array binding signal (z-score)", "setting": "[19]", "value": -0.265},
      {"measurement": "glycan array binding signal (z-score)", "setting": "[20]", "value": -0.251},
      {"measurement": "glycan array binding signal (z-score)", "setting": "[21]", "value": -0.262},
      {"measurement": "glycan array binding signal (z-score)", "setting": "Neu5Ac(a2-8)Neu5Ac", "value": -0.259},
      {"measurement": "glycan array binding signal (z-score)", "setting": "[22]", "value": -0.254},
      {"measurement": "glycan array binding signal (z-score)", "setting": "[23]", "value": -0.155},
      {"measurement": "glycan array binding signal (z-score)", "setting": "[24]", "value": -0.257},
      {"measurement": "glycan array binding signal (z-score)", "setting": "[25]", "value": -0.258},
      {"measurement": "glycan array binding signal (z-score)", "setting": "[26]", "value": -0.256},
      {"measurement": "glycan array binding signal (z-score)", "setting": "[27]", "value": -0.261},
      {"measurement": "glycan array binding signal (z-score)", "setting": "[28]", "value": -0.253},
      {"measurement": "glycan array binding signal (z-score)", "setting": "[29]", "value": -0.272},
      {"measurement": "glycan array binding signal (z-score)", "setting": "Neu5Ac(b2-6)GalNAc", "value": -0.254},
      {"measurement": "glycan array binding signal (z-score)", "setting": "[30]", "value": -0.256},
      {"measurement": "glycan array binding signal (z-score)", "setting": "[31]", "value": -0.18},
      {"measurement": "glycan array binding signal (z-score)", "setting": "[32]", "value": -0.27},
      {"measurement": "glycan array binding signal (z-score)", "setting": "[33]", "value": -0.109},
      {"measurement": "glycan array binding signal (z-score)", "setting": "[34]", "value": -0.262},
      {"measurement": "glycan array binding signal (z-score)", "setting": "Neu5Gc(a2-3)Gal(b1-4)Glc", "value": -0.253},
      {"measurement": "glycan array binding signal (z-score)", "setting": "[35]", "value": -0.141},
      {"measurement": "glycan array binding signal (z-score)", "setting": "[36]", "value": -0.265},
      {"measurement": "glycan array binding signal (z-score)", "setting": "[37]", "value": -0.267},
      {"measurement": "glycan array binding signal (z-score)", "setting": "Neu5Gc(a2-6)GalNAc", "value": -0.259},
      {"measurement": "glycan array binding signal (z-score)", "setting": "[38]", "value": -0.25}
    ]}
  ]
}
